Results taken from the supplement of paper PMC7826260.
This is one part of the list. The data describe in vitro nicking of single-stranded DNA by Rep domains (1 h at 37 °C, 3 µM enzyme); the outer parts of the 90-letter strands are left off. Uncut reads are compared with the no-enzyme pool on a log2 scale; more negative means more cut, near 0 not cut, and no call is made. Because reads are shares of a total, they shift together; uncut strands gain when others are lost, and binding without cutting may add a little.

tested on: T1, Rep nickase domain of wheat dwarf virus; assay: uncleaved DNA left, log2 of reads against the no-enzyme library (log2 ratio); higher = less cleavage (more negative = more Rep cleavage of the k-mer); sequences stand for … in CTCGTCCG…ACCGGAGA
T1 sequence (protein, residues 1-137, tag omitted): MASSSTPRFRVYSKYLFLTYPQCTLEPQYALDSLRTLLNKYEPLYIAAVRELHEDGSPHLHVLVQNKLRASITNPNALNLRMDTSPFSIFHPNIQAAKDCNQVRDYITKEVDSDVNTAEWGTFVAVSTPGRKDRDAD
Procedure: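 A pool of 90-nt single-stranded DNAs with seven random bases just before the constant AC of the nick site (name = the seven bases) was cut by 3 µM recombinant His6-SUMO-tagged Rep nickase domain (300 nM DNA, 50 mM HEPES pH 8.0, 50 mM NaCl, 1 mM MnCl2, 1 h, 37 °C, three replicates). Uncut DNA was amplified and sequenced.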

Row | Sequence | uncleaved DNA left (log2)
1 | TCGAATC | -0.0143
2 | TTCCTCG | -0.202
3 | GGGGCGC | 0.0403
4 | TTCCGGC | -0.0241
5 | AGCTTTC | -0.113
6 | ATACCAC | 0.0593
7 | CCTCATG | -0.091
8 | TCGCTCT | -0.025
9 | TAATAAT | -4.47
10 | GTGCCAC | 0.0362
11 | CTGCCCG | -0.0747
12 | TGCGACT | 0.0591
13 | GTAATCT | 0.0322
14 | GGTCGTG | 0.0762
15 | AGGCATT | 0.35
16 | GTCGGTT | 0.093
17 | GCGCGTT | -0.0332
18 | AGACCAC | 0.055
19 | CCGTCAA | 0.0521
20 | TGATGCA | -0.121

Row | Sequence | uncleaved DNA left (log2)
21 | CTTAAAT | 0.137
22 | TACTTTA | -0.00971
23 | GTGGGAA | 0.152
24 | CTGCATA | -0.00425
25 | TAACCAC | -0.178
26 | AGTCGGT | 0.0906
27 | TCAAAGA | -0.047
28 | GAACACA | 0.215
29 | TACGCCA | 0.0448
30 | GGGGTCG | 0.162
31 | CCCGAAA | -0.018
32 | CCTCGTG | -0.239
33 | CATCAGT | -0.126
34 | CGCGTTC | -0.0324
35 | AGTAGGA | -0.0737
36 | TCCGGCA | -0.0702
37 | CCGCAAC | 0.058
38 | ATACTGG | -0.00304
39 | TGGCAGA | 0.0142
40 | ACCTTCA | -0.0226
